The values that follow come from patent US20240166748A1.

B1: wild-type canine IgG.B Fc (SASA-tagged CH2-CH3) (Fc fusion, part only; not given: serum albumin single-domain tag, part only)
chain, part: APEMLGGPSVFIFPPKPKDTLLIARTPEVTCVVVDLDPEDPEVQISWFVDGKQMQTAKTQPREEQFNGTYRVVSVLPIGHQDWLKGKQFTCKVNNKALPSPIERTISKARGQAHQPSVYVLPPSREELSKNTVSLTCLIKDFFPPDIDVEWQSNGQQEPESKYRTTPPQLDEDGSYFLYSKLSVDKSRWQRGDTFICAVMHEALHNHYTQESLSHSPGK

Not every entry of the source has a single result; some have several. Only these are listed. An entry can have further records. For part of these data: The values listed for one entry read as repeated measurements (runs, samples, wells or individuals). For part of these data: Results that share an entry read as repeated measurements on other runs, samples or individuals; one of them may be the mean.

In the first test the target is T1, canine FcRn (UniProtKB-E2R0L6 [FcRn] and UniProtKB-E2RN10 [canine beta-2-microglobulin]) (canine). The experiment in a line: SPR Biacore 8K, pH 5.5, Fc captured via SASA tag on BSA, canine FcRn 400 nM. In general terms: Surface plasmon resonance follows binding to a sensor surface in real time, without labels.
In general, koff refers to the first-order rate constant of dissociation. Higher therefore signals a short-lived complex. In general, kon refers to the rate constant with which the complex forms. Higher therefore signals faster complex formation. For the molecule “canine IgG.B Fc variant A254S (SASA-tagged CH2-CH3) (Fc fusion)”, the koff is 2.69 s⁻¹ and 0.758 s⁻¹ [lines of one column]; the kon is 7.9e+06 M⁻¹ s⁻¹ and 2.4e+06 M⁻¹ s⁻¹ [lines of one column].
Take “canine IgG.B Fc variant G309A (SASA-tagged CH2-CH3) (Fc fusion)”: the koff is 0.348 s⁻¹ and 0.0719 s⁻¹ [lines of one column]; the kon was 1.4e+06 M⁻¹ s⁻¹ and 244000 M⁻¹ s⁻¹ [lines of one column].
On to “canine IgG.B Fc variant H433A (SASA-tagged CH2-CH3) (Fc fusion)”, for which the on-rate (kon) was 862000 M⁻¹ s⁻¹ and 278000 M⁻¹ s⁻¹ [lines of one column].
As for “canine IgG.B Fc variant K315A (SASA-tagged CH2-CH3) (Fc fusion)”, the off-rate constant (koff) was 17.4 s⁻¹ and 0.134 s⁻¹ [lines of one column]; the kon was 4.1e+07 M⁻¹ s⁻¹ and 245000 M⁻¹ s⁻¹ [lines of one column].
Take “canine IgG.B Fc variant L252A (SASA-tagged CH2-CH3) (Fc fusion)”: the koff is 0.0969 s⁻¹ and 0.567 s⁻¹ [lines of one column]; the kon was 332000 M⁻¹ s⁻¹ and 2.4e+06 M⁻¹ s⁻¹ [lines of one column].
Consider “canine IgG.B Fc variant M428A (SASA-tagged CH2-CH3) (Fc fusion)”, for which the koff is 0.169 s⁻¹ and 0.532 s⁻¹ [lines of one column].
In the case of “canine IgG.B Fc variant P307A (SASA-tagged CH2-CH3) (Fc fusion)”, the koff is 93.1 s⁻¹ and 1.23 s⁻¹ [lines of one column]; the kon is 2.9e+08 M⁻¹ s⁻¹ and 3.7e+06 M⁻¹ s⁻¹ [lines of one column].
On to “canine IgG.B Fc variant Q285A (SASA-tagged CH2-CH3) (Fc fusion)”, for which the koff was 0.112 s⁻¹ and 35.2 s⁻¹ [lines of one column]; the kon was 328000 M⁻¹ s⁻¹ and 1.4e+08 M⁻¹ s⁻¹ [lines of one column].
For “canine IgG.B Fc variant T250A (SASA-tagged CH2-CH3) (Fc fusion)”, the on-rate constant (kon) was 1.9e+07 M⁻¹ s⁻¹ and 3.9e+06 M⁻¹ s⁻¹ [lines of one column].
For the molecule “canine IgG.B Fc variant T256A (SASA-tagged CH2-CH3) (Fc fusion)”, the off-rate (koff) was 0.166 s⁻¹ and 72.4 s⁻¹ [lines of one column]; the kon was 371000 M⁻¹ s⁻¹ and 2.4e+08 M⁻¹ s⁻¹ [lines of one column].
As to “canine IgG.B Fc variant Y436A (SASA-tagged CH2-CH3) (Fc fusion)”, the kon was 1e+06 M⁻¹ s⁻¹ and 244000 M⁻¹ s⁻¹ [lines of one column].
By Kd is commonly meant a measure of binding affinity in units of concentration. A lower Kd goes with higher affinity. Turning to B1, the dissociation constant (Kd) was 321 nM, 592 nM, 418 nM, 534 nM, 488 nM, 514 nM, 606 nM, 489 nM, 616 nM, 614 nM, 465 nM, 1.13 µM [lines of one column]; the WT KD Avg/Variant KD was 1.76, 0.96, 1.35, 1.06, 1.16, 1.1, 0.93, 0.92, 1.22, 0.5 [lines of one column]; the koff was 1.16, 0.375, 0.185, 0.314, 0.188, 0.201, 0.16, 0.152, 0.166, 0.479, 0.135, 0.196 s⁻¹ [lines of one column]; the kon is 3.6e+06 M⁻¹ s⁻¹, 632000 M⁻¹ s⁻¹, 442000 M⁻¹ s⁻¹, 587000 M⁻¹ s⁻¹, 386000 M⁻¹ s⁻¹, 391000 M⁻¹ s⁻¹, 265000 M⁻¹ s⁻¹, 310000 M⁻¹ s⁻¹, 269000 M⁻¹ s⁻¹, 780000 M⁻¹ s⁻¹, 290000 M⁻¹ s⁻¹, 173000 M⁻¹ s⁻¹ [lines of one column].

The next test deals with T1, canine FcRn. The experiment in a line: SPR Biacore 8K, pH 5.5, Fc captured via SASA tag on BSA, canine FcRn 200 nM.
As to “canine IgG.B Fc variant G309P (SASA-tagged CH2-CH3) (Fc fusion)”, the Kd is 635, 434, 637, 718 nM [lines of one column]; the koff is 0.239, 0.242, 0.132, 0.145 s⁻¹ [lines of one column]; the kon was 377000, 558000, 207000, 202000 M⁻¹ s⁻¹ [lines of one column].
Turning to “canine IgG.B Fc variant N434W (SASA-tagged CH2-CH3) (Fc fusion)”, the koff was 0.028 s⁻¹ and 0.318 s⁻¹ [lines of one column]; the on-rate (kon) was 693000 M⁻¹ s⁻¹ and 4.2e+06 M⁻¹ s⁻¹ [lines of one column].
